PubChem BioAssay AID720709 (National Center for Advancing Translational Sciences (NCATS), 2013)
In all, about 360,000 compounds went through this assay and about 520 (0.14%) were called active. Inconclusive means that the source gave no clear call. Such entries were picked first, then a sample of the others. Calls follow the shape of the dose curve; as a rule, active = well fitted inhibition curve with a large enough effect; inconclusive = small, poorly fitted or top-dose-only effect; inactive = no such curve, though single readings can be large or run the other way. Where the call is inconclusive, the potency comes from a doubtful curve fit.

Target: Rap guanine nucleotide exchange factor 3 (Homo sapiens) (UniProt O95398)
Assay: qHTS for Antagonist of cAMP-regulated guanine nucleotide exchange factor 3 (EPAC1): primary screen; also: nearly all actives have a fitted effect of over 50% in size;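 as to activity change, negative = inhibition: plate controls were vehicle for no effect and positive control for full effect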
Conditions: EPAC1 GEF assay, Rap1b-BODIPY-GDP exchange fluorescence; activity change, negative = inhibition: at 115 µM (top of the series)
Potency is read from the fitted curve at half-maximal effect; tags tell the direction and shape of the fitted curve.

Chain of UniProt O95398 (O95398 whole entry, looked up): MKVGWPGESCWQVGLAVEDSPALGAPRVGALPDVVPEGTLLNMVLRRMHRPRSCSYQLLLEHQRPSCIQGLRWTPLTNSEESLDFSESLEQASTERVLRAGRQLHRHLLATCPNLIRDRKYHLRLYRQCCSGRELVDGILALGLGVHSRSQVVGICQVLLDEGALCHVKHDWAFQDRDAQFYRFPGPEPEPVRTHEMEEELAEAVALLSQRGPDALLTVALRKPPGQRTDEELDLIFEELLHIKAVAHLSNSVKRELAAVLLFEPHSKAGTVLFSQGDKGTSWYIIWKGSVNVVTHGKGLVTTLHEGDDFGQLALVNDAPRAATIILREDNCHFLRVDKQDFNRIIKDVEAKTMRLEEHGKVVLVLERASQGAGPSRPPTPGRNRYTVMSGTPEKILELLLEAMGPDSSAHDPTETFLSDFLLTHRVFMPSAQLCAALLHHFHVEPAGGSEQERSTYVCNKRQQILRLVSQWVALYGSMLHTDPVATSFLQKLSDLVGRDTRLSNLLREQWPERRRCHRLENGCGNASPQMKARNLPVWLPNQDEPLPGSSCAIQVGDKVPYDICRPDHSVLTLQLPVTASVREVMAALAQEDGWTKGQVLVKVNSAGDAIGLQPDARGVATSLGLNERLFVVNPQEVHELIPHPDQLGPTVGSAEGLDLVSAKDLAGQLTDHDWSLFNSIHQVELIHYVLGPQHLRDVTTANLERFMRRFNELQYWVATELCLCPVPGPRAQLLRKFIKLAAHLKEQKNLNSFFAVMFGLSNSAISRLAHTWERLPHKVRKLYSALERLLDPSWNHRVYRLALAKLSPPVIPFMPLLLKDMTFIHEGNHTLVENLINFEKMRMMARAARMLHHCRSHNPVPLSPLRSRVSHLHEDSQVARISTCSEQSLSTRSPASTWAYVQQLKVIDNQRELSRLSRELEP

Potency, inconclusive:
COCCCNc1ccn2nc(-c3ccc(CC(C)C)cc3)cc2n1 35.5 µM [inhibitor, full curve, poor fit], O=C(NCc1cccs1)c1ccc(Cl)c(S(=O)(=O)N2CCCC2)c1 100 µM [inhibitor, single point], COc1ccccc1NC(=O)CCSc1ccc(C)cc1 50.1 µM [inhibitor, partial curve], CC(=O)Nc1ccc(SC[C@H](Cc2ccccc2)N2CC[C@@H](C(C)(C)C)CCC2=O)cc1 89.1 µM [inhibitor, partial curve], CC(=O)NC(c1ccc(Cl)cc1Cl)c1ccc2cccnc2c1O (centres undefined) 35.5 µM [inhibitor, partial curve, poor fit], CCOc1ccc(S(=O)(=O)N(C)c2ccc(OCC(=O)NC3=NCCS3)cc2)cc1 6.31 µM [inhibitor, full curve, poor fit], O=c1c2ccccc2nc(/C=C/c2cccc([N+](=O)[O-])c2)n1CCO 100 µM [inhibitor, single point], Cc1ccc(S(=O)(=O)NCCC(c2ccc(F)cc2)c2ccco2)cc1 (centres undefined) 31.6 µM [inhibitor, partial curve, poor fit], COC(=O)/C(=C\Nc1ccc(Cl)cc1Cl)NC(=O)c1ccc(OC)cc1 70.8 µM [inhibitor, single point], COCCNC(=S)N/N=C/c1ccc(OCc2ccc(C(=O)OC)cc2)c(OC)c1 112 µM [inhibitor, partial curve, poor fit], Cc1cccc(N2CCN(S(=O)(=O)c3c(C)[nH]c(C)c3C(=O)N3CCCC3)CC2)c1C 89.1 µM [inhibitor, partial curve], C=CC#CC1(O)CC(C)N(C)CC1C (centres undefined) 56.2 µM [inhibitor, partial curve], CC(=O)c1ccc(OCC(=O)NC2CCCN(Cc3ccccc3F)C2)cc1 (centres undefined) 35.5 µM [inhibitor, single point]

Potency, active:
COc1cc(/C=C(\C#N)c2nc3ccc(C)cc3[nH]2)cc([N+](=O)[O-])c1O 28.2 µM

Activity change, negative = inhibition, inactive:
O=C(Nc1ccccc1)N1CC=C(c2ccc(F)cc2)CC1 -2.67%, CC1(C)CC(=O)C=C(c2ccc(CO)cc2)C1=O -4.31%, Cc1ccc2c(c1)c1c3n2CCN(C(=O)CN2CCN(C)CC2)C3CCC1 (centres undefined) 8.45%, COC(=O)c1sc(-c2cccs2)cc1N -2.1%, COc1cccc(/C=C2/C(=O)NN(c3ccc(C)c(C)c3)C2=O)c1 -3.4%
